From PubChem BioAssay AID1347073 (National Center for Advancing Translational Sciences (NCATS), 2019)
The whole screen tested about 45,000 compounds, of which about 200 (0.44%) were called active. Roughly 7% stayed inconclusive and do not appear here. Calls come from the whole dose curve; as a rule, active = well fitted activation curve with a large enough effect; inconclusive = small, poorly fitted or top-dose-only effect; inactive = no such curve, though single readings can be large or run the other way. Some of the results follow.

Experiment: qHTS of TDP-43 Inhibitors: NCGC Sytravon Library Screen; note: 0% is about no effect; nearly all actives have a fitted effect of over 55% in size
Conditions: yeast TDP-43 toxicity rescue, BacTiter-Glo growth, 24 h; series mostly up to 46.1 µM; growth rescue (activation): at the top concentration
Method in brief: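 TDP-43-expressing yeast, pregrown in raffinose, seeded at OD600 0.02 in galactose medium with compound for 24 hr at 30 deg C. Growth read by BacTiter-Glo luminescence, so rescue of toxicity appears as activation.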

SMILES | growth rescue (activation)
O=C(COC(=O)c1ccc(O)cc1)Nc1ncc(Cl)cc1Cl | inactive: -2.15%
CC1(C)Cc2ccccc2-c2nc3n(c(=O)c21)CCS3 | inactive: 13.7%
Cc1ccc(C2(C)NC(=O)N(CC(=O)Nc3cc(S(=O)(=O)N(C)C)ccc3C)C2=O)cc1 (stereo unspecified) | inactive: -6.34%
CCN(CCO)c1ccc(-n2c(N)c(C(=O)OC)c3nc4ccccc4nc32)cc1 | inactive: -1.65%
Cc1nc2c(C)cccn2c1/C(O)=C1\C(=O)C(=O)N(CCN(C)C)C1c1ccco1 (stereo unspecified) | inactive: 3.81%
Cc1ccc(-c2nnc(SCC(=O)NC3CCCC3)n2C)cc1 | inactive: 12.8%
CC(=O)Nc1ccc(NC(=O)Cn2cnc3c(cnn3C(C)(C)C)c2=O)cc1 | inactive: -6.69%
CCCCNS(=O)(=O)c1ccc(NC(=O)C(Sc2ccccc2)c2ccccc2)cc1 (stereo unspecified) | inactive: -12.7%
CN(C)CCNS(=O)(=O)c1ccc(N2CCc3ccccc32)c([N+](=O)[O-])c1 | inactive: -8.49%
O=C1CCC([N+](=O)[O-])C(c2ccc(F)c(Br)c2)N1 (stereo unspecified) | inactive: -9.52%
CCC(CC)C(=O)N(C)c1c(C)nc2c(OCc3ccc(Cl)cc3Cl)cccn12 | inactive: 5.16%
COc1cc(NC(=S)N2CCCCC2C)c(OC)cc1Cl (stereo unspecified) | inactive: 13.2%
O=C(NCc1ccccn1)c1ccc(CNS(=O)(=O)c2cccc(Cl)c2)cc1 | inactive: 12.2%
CN(C)C(CNC(=O)c1ccc(Br)cc1)c1ccco1 (stereo unspecified) | inactive: -24.6%
COc1cc(C(=O)NCCC(=O)N2CCCCC2)cc(OC)c1OC | inactive: 12.4%
Cc1c(Cl)sn(-c2ccc(Cl)cc2)c1=O | inactive: -94%
Cc1nn(Cc2noc(C(=O)NCCc3ccccn3)n2)c(C)c1Br | inactive: 4.67%
CCCCNC(=O)C1(C)CCN1Cc1ccc(C(=O)OCC)cc1 (stereo unspecified) | inactive: -2.79%
O=C(N/N=C/c1ccc([N+](=O)[O-])cc1)C(=O)N1CCCC1 | inactive: 10.7%
CC(=O)OC[C@@H]1CN(Cc2ccccc2)C[C@H](n2cnc3c(NC4CCC4)ncnc32)O1 | inactive: -2.8%
CC(C)N(C(=O)CSc1n[nH]c(=O)n1CCc1ccccc1)C(C)C | inactive: 3.24%
N#CC1=C(N)Oc2nc(-c3ccccc3)[nH]c2C1c1cccnc1 (stereo unspecified) | inactive: -24.3%

SMILES | growth rescue (activation)
O=c1cc(CN2CCC(Cc3ccccc3)CC2)nc2sccn12 | inactive: 12.7%
CCCNC(=O)NC(=O)CN1CCCC1c1ccc2c(c1)OCCO2 (stereo unspecified) | inactive: -17.2%
COc1ccc(CNC(=O)COC(=O)c2ccc(OCc3c(C)noc3C)cc2)cc1OC | inactive: 5.66%
N#C/C(=C\c1c(Oc2ccccc2F)nc2ccccn2c1=O)C(=O)NC1CCS(=O)(=O)C1 (stereo unspecified) | inactive: 18%
Cc1ccccc1OCC(=O)N/N=C1\SCC(=O)N1Cc1ccccc1 | inactive: 5.13%
CCc1nnc2c(NCCc3ccc(OC)c(OC)c3)nc3ccccc3n12 | inactive: 0.632%
CCN(Cc1ccc(OC)c(F)c1)C(=O)CCl | inactive: 1.74%
COc1ccc(OC)c(NC(=O)Cn2c(CCC(=O)O)ccc2-c2ccc(C)cc2)c1 | inactive: -0.827%
COc1ccccc1CCc1nnc(CCC(=O)NCCOc2cccnc2)o1 | inactive: 0.0967%
CC(=O)Nc1cccc(NC(=O)/C=C/c2ccc(S(=O)(=O)N3CCOCC3)cc2)c1 | inactive: -18.5%
CC(C)C[C@H](NC(=O)c1cc2cc(Cl)ccc2n1C)C(=O)N1CCC(C(=O)O)CC1 | inactive: -17.9%
N#Cc1cc2cc3c(cc2nc1SCC(=O)N1CCCC1)OCCO3 | inactive: 3.41%
CC(=O)CC(=O)Nc1ncccn1 | inactive: -14.9%
O=C(COc1ccccc1)NC1CCSC1=O (stereo unspecified) | inactive: 7.97%
COc1ccc(CNCCC(c2ccc(OC)cc2)c2ccccc2OC)cc1 (stereo unspecified) | inactive: 2.65%
O=C(NCc1ccccn1)c1ccc(Cn2cc(C(F)(F)F)ccc2=O)cc1 | inactive: 5.6%
Cc1ccc(C(=O)N2CCC(C(=O)NC3CCCC3)CC2)cc1 | inactive: -4.27%
COc1ccc(-c2cc(C(F)(F)F)nc(SCCC(=O)Nc3cc(C)on3)n2)cc1 | inactive: 15.2%
Cc1ccc(S(=O)(=O)Nc2cc3c(cc2C#N)OCO3)cc1C(N)=O | inactive: -2.41%
O=C(Nc1cccc(O)c1)c1cc(-c2cccs2)on1 | inactive: 14.3%
COc1ccc(/C=N/NC(=O)c2ccccc2O)cc1CN1CCOCC1 | inactive: 1.56%
CC(Oc1ccc(F)cc1)C(=O)Nc1cc(-c2ccc(F)c(F)c2)no1 (stereo unspecified) | inactive: 14%

SMILES | growth rescue (activation)
CCN(/N=C/C=C/c1ccccc1)c1cc(=O)n(C)c(=O)[nH]1 | inactive: -6.39%
NC(=O)c1nsc(C(=O)N(c2ccccc2)C(C(=O)NCC2CCCO2)c2ccc(F)cc2)c1N (stereo unspecified) | inactive: -2.04%
CCOCCCN1CN(S(=O)(=O)c2ccc(Cl)cc2)c2nc3ccccc3nc21 | inactive: 31.6%
Cc1cc([N+](=O)[O-])nn1CCCC(=O)NCc1ccc(F)cc1 | inactive: 1%
COc1ccc(CNC(=O)COC(=O)c2cc3ccccc3o2)cc1 | inactive: 8.46%
Cc1ccc(OCC(=O)Nc2ccc(F)cc2)c([N+](=O)[O-])n1 | inactive: 24.2%
OC[C@@H]1CN(Cc2ccccc2)C[C@H](n2cnc3c(N4CCOCC4)ncnc32)O1 | inactive: -4.76%
O=C(CSc1n[nH]c(-c2ccncc2)n1)Nc1ccc(Cl)c(Cl)c1 | inactive: -11.8%
Cc1onc(-c2c(F)cccc2Cl)c1C(=O)N1CCCC1 | inactive: 26.7%
O=C(CCN1C(=O)c2ccc([N+](=O)[O-])cc2C1=O)Nc1ccccc1C(=O)O | inactive: -5.18%
CCOc1ccc(NC(=O)COC(=O)C2CC2C)cc1 (stereo unspecified) | inactive: 10.8%
COCCNC(=O)C1(C)CCCN(C(=O)c2cc(C)oc2C)C1 (stereo unspecified) | inactive: 5.36%
O=C(Cc1ccccc1F)NCC1(N2CCOCC2)CCCCC1 | inactive: 19.8%
COc1ccc(CNC(=O)C2(C)Cc3c(-c4ccc5c(c4)OCO5)ccnc3O2)cc1OC (stereo unspecified) | inactive: 22.5%
CCCCN(C)CCC(=O)Nc1ccc(Cl)cc1 | inactive: 3.32%
Cc1nc(SC(C(=O)c2ccccc2)c2ccccc2)nc2ccccc12 (stereo unspecified) | inactive: 9.05%
Cc1ccc(-c2ccc(S(=O)(=O)NCc3ccco3)cc2)cc1 | inactive: 10.6%
NC(=O)c1ccc(SCC(=O)NC2CCCCC2)c([N+](=O)[O-])c1 | inactive: 4.03%
CC(=O)c1c(NC(=O)c2ccccc2)[nH]c(-c2ccccc2)nc1=S | inactive: 16.3%
COc1cc(/C=N/NC(=S)Nc2cccc(C(=O)O)c2)cc(OC)c1OC | inactive: 7.5%
NC(=O)C1CCN(c2ccc(S(=O)(=O)N3CCCCC3)cc2[N+](=O)[O-])CC1 | inactive: 6.1%
COc1c(N2CCN(C(=S)NCc3ccccc3)C(C)C2)c(F)cc2c(=O)c(C(=O)O)cn(C3CC3)c12 (stereo unspecified) | inactive: -21.1%

SMILES | growth rescue (activation)
CCN(C(=O)Cn1c(=O)oc2cc(S(=O)(=O)N3CCCC3)ccc21)c1cccc(C)c1 | inactive: -1.72%
CC(=NNC(=O)c1cc(C)nc2ccccc12)c1ccc(N2CCOCC2)cc1 | inactive: 22.2%
O=C(NCCc1ccccc1)C(=O)c1c[nH]c2ccccc12 | inactive: 16.5%
CC(OC(=O)c1ccc2c(=O)n3c(nc2c1)CCCCC3)C(=O)Nc1ccc(Cl)cn1 (stereo unspecified) | inactive: 8.93%
Cc1noc(C)c1COc1ccc(CC(=O)NC2CCCCCC2)cc1 | inactive: 25%
CCOC(=O)C1CCCN(C(=O)c2cc(F)ccc2C)CC1 (stereo unspecified) | inactive: 23.4%
CCc1ccc(NC(=O)C(C)OC(=O)c2cccc(S(=O)(=O)N3CCc4ccccc4C3)c2)cc1 (stereo unspecified) | inactive: -5.43%
CCC(=O)Nc1ccc(C(=O)Nc2ccc(OC)cc2[N+](=O)[O-])cc1 | inactive: 13.4%
O=c1cc(-c2cccc(Br)c2)nc(-c2ccccc2F)o1 | inactive: -10.1%
CCN(CC)CCCNc1oc(-c2ccc(OC)c(OC)c2)nc1C#N | inactive: 13.7%
COc1ccc(NC(=O)O/N=C/c2ccc(Br)cc2)cc1 | inactive: -10.5%
Cc1cc(C)cc(NC(=S)Nc2ccc(Cl)c(Cl)c2)c1 | inactive: -90.3%
NC(=O)c1ccccc1NC(=O)Nc1ccc(F)c(Cl)c1 | inactive: 9.49%
COc1ccc(S(=O)(=O)NCC(c2ccc(F)cc2)N2CCOCC2)cc1Br (stereo unspecified) | inactive: -1.55%
COc1cc(OC)cc(-c2cc3nc(C)c(CCC(=O)NCc4ccccc4)c(C)n3n2)c1 | inactive: -9.99%
CC(C)c1ccc(NC(=O)c2ccc3c(c2)CCN3S(=O)(=O)c2ccccc2)cc1 | inactive: -1.26%
CC(Sc1nc2c(c(=O)[nH]1)CCCC2)C(=O)Nc1ccc(S(N)(=O)=O)cc1 (stereo unspecified) | inactive: 4.83%
CC(OC(=O)c1cc(S(=O)(=O)N2CCOCC2)ccc1F)C(=O)NCC1CCCCC1 (stereo unspecified) | inactive: -9.38%
COCc1nnc(NC(=O)CCS(=O)(=O)c2ccccc2)s1 | inactive: 16.3%
Clc1cccc(-c2nc(NCCN3CCOCC3)c3ccccc3n2)c1 | inactive: 6.72%
NC(=O)c1cc([N+](=O)[O-])ccc1N1CCCCC1 | inactive: 19.2%
NS(=O)(=O)c1ccc(NC(=O)/C=C/c2cccs2)cc1 | inactive: -3.03%

SMILES | growth rescue (activation)
O=C(N/N=C/c1cc(Cl)ccc1O)c1cccnc1 | inactive: -4.2%
CCCCNC(=O)C(=O)NCc1ccncc1 | inactive: -3.04%
CSc1ccccc1C(=O)N1CCCC(CCC(=O)NCc2ccc(F)c(F)c2)C1 (stereo unspecified) | inactive: 2.37%
CC(=O)N1CCc2cc(Br)cc(S(=O)(=O)CCC(=O)N3CCN(c4ccccn4)CC3)c21 | inactive: -0.0676%
Cn1c(SCC(=O)Nc2sccc2C(N)=O)nnc1-c1ccncc1 | inactive: 29%
CCC1(C)CC2(CCCN(CCC(=O)c3ccccc3)C2)CCO1 (stereo unspecified) | inactive: 5.28%
Clc1ccc(CNc2ccc(CNc3ncn[nH]3)cc2)c(Cl)c1 | inactive: 6.96%
Cc1ccc(S(=O)(=O)N2CCOCC2)cc1NC(=O)COC(=O)c1ccc2c(c1)OCCO2 | inactive: -3.85%
Cc1ccc(-c2nn(-c3ccccc3)cc2C2CC(c3ccccc3)=NN2C(=O)CCC(=O)O)cc1 (stereo unspecified) | inactive: -26.8%
Cc1cc(=O)[nH]c(N/N=C/c2ccccn2)n1 | inactive: -0.037%
COc1ccc(CCC(=O)NCc2ccc3c(c2)OCO3)cc1 | inactive: 2.3%
O=C(COc1ccc(S(=O)(=O)N2CCCCC2)cc1)NCc1ccccn1 | inactive: -7.12%
CCN(CC(N)=O)S(=O)(=O)c1ccc(F)cc1 | inactive: 2.14%
CCOC(=O)c1ccc(S(=O)(=O)N2CCN(C3CCCC3)CC2)cc1 | inactive: 16.4%
COC1(OC)N=C(N)C2(C#N)C(c3cccc(Oc4ccccc4)c3)C12C#N (stereo unspecified) | inactive: -17.4%
Cc1ccc2[nH]c(C)c(/C=C/c3cc[n+](C)cc3)c2c1 | inactive: 0.276%
COc1ccc(CC(=O)NNS(=O)(=O)c2cccc([N+](=O)[O-])c2)cc1OC | inactive: 1.72%
Cc1cc(Nc2ccccc2)c2c([N+](=O)[O-])ccc(C)c2n1 | inactive: -0.189%
